The values below come from PubChem BioAssay AID1745853 (National Center for Advancing Translational Sciences (NCATS), 2022).

This is one part of the list. Shown are side measurements of this screen, not its main read-out; they come without a call.

Test in all cases: Primary Screen for Target Class Profiling of Small Molecule Inhibitors of Methyltransferases
Assay [1] concerns the target Glycine N-methyltransferase (Homo sapiens) (UniProt Q14749). Conditions: purified enzyme, MTase-Glo SAH luminescence; measured here: GNMT inhibition; at 40 µM; stronger effect = lower value. The essentials: (§1)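 Each enzyme was assayed with SAM and its substrate. SAH formation detected by MTase-Glo luminescence; single-point 40 uM screen[…].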
For assay [2], the target named is Guanidinoacetate N-methyltransferase (Homo sapiens) (UniProt Q14353). Conditions: purified enzyme, MTase-Glo SAH luminescence; measured here: GAMT inhibition; at 40 µM; stronger effect = lower value. The essentials: as §1
Assay [3] deals with Histamine N-methyltransferase (Homo sapiens) (UniProt P50135). Conditions: purified enzyme, MTase-Glo SAH luminescence; measured here: HNMT inhibition; at 40 µM; stronger effect = lower value. The essentials: as §1
Assay [4] has as its target Nicotinamide N-methyltransferase (Homo sapiens) (UniProt P40261). To be noted: purified enzyme, MTase-Glo SAH luminescence; measured here: NNMT inhibition; at 40 µM; stronger effect = lower value. The essentials:
as §1

Assay [5] has as its target Phenylethanolamine N-methyltransferase (Homo sapiens) (UniProt P11086). Conditions: purified enzyme, MTase-Glo SAH luminescence; measured here: PNMT inhibition; at 40 µM; stronger effect = lower value. The essentials:
as §1
On the % scale 0 is the no-effect control and ±100 the full control effect.

With `CCOc1ccc(NC(=O)N2Cc3ccccc3-n3cccc3C2c2ccc(CC)cc2)cc1` (stereo not given), the activity change, negative = inhibition turned out to be 8.38% in assay [1]; 1.76% in assay [2]; 3.5% in assay [3]; 4.41% in assay [4]; 5.31% in assay [5].
Take `C[C@H](CCC(=O)O)C[C@H](C)C[C@H](C)C(=O)/C=C(\O)[C@H](C)C[C@H](C)C/C=C/[C@@H](C)[C@@H](O)[C@@H](C)[C@@H](O)C[C@@H]1CC[C@@](C)([C@H]2CC[C@@](C)([C@@H](C)O)O2)O1`: the activity change, negative = inhibition in assay [1] was 2.45%; in assay [2], 19.1%; in assay [3], 9.27%; in assay [4] it was -3.65%; in assay [5], 2.27%.
In the same order, the values of `CCOc1ccc(NC(=O)N2Cc3ccccc3-n3cccc3C2c2ccc(OC)cc2)cc1` (stereo not given) are 12.3%, 0%, 6.31%, 4.26% and 7.34%.
In the same order, the values of `Cc1ccc(C2c3cccn3-c3ccccc3CN2C(=O)Nc2cc(C)ccc2C)cc1` (stereo not given) are 2.92%, 2.59%, -8.27%, -12.1% and -7.07%.
For the molecule `Cc1cccc(NC(=O)N2Cc3ccccc3-n3cccc3C2c2cccs2)c1C` (stereo not given), the activity change, negative = inhibition in assay [1] was 3.01%; in assay [2], 0%; in assay [3] it was -3.17%; in assay [4], -0.61%; in assay [5], 5.77%.
`CCC1c2cccn2-c2ccccc2CN1C(=O)Nc1ccc(F)c(Cl)c1` (stereo not given): the activity change, negative = inhibition is -0.412% in assay [1]; 5.11% in assay [2]; 6.96% in assay [3]; 2.56% in assay [4]; 7.87% in assay [5].
Regarding `CC(C)C1c2cccn2-c2ccccc2CN1C(=O)Nc1ccccc1Br` (stereo not given), the activity change, negative = inhibition in assay [1] is -5.25%; in assay [2], 4%; in assay [3] it was -2.18%; in assay [4], -5.39%; in assay [5], 0.849%.
As for `CC(=O)O[C@H]1CN2CCC1CC2`, the activity change, negative = inhibition in assay [1] was -1.58%; in assay [2] it was 2.04%; in assay [3], -45.7%; in assay [4], -6.66%; in assay [5] it was 1.57%.
As for `COc1ccc(C)cc1NC(=O)N1Cc2ccccc2-n2cccc2C1c1cc(F)cc(F)c1` (stereo not given), the activity change, negative = inhibition in assay [1] was 7.86%; in assay [2] it was 0%; in assay [3], -1.2%; in assay [4], 4.24%; in assay [5], 5.86%.
Consider `C[C@@](O)(COc1ccc(C#N)cc1)C(=O)Nc1ccc(C#N)c(C(F)(F)F)c1`, for which the activity change, negative = inhibition is -1.6% in assay [1]; 4.9% in assay [2]; 7.39% in assay [3]; -12.8% in assay [4]; -5.65% in assay [5].
With `COC(=O)c1cccc(NC(=O)N2Cc3ccccc3-n3cccc3C2c2ccc(OC)c(OC)c2)c1` (stereo not given), the activity change, negative = inhibition in assay [1] is 9.32%; in assay [2] it was 0%; in assay [3] it was 0.427%; in assay [4], -0.374%; in assay [5] it was 3.37%.
As for `CCOc1ccc(C2c3cccn3-c3ccccc3CN2C(=O)Nc2ccccc2C)cc1` (stereo not given), the activity change, negative = inhibition in assay [1] was -1.7%; in assay [2] it was 0%; in assay [3] it was 11.1%; in assay [4], 9.4%; in assay [5] it was 6.68%.
In the same order, the values of `COc1ccc(OC)c(NC(=O)N2Cc3ccccc3-n3cccc3C2c2ccc(SC)cc2)c1` (stereo not given) are -2.77%, 3.59%, 3.43%, -0.891% and 2.18%.
Take `Cc1ccccc1C1c2cccn2-c2ccccc2CN1C(=O)NC1CCCC1` (stereo not given): the activity change, negative = inhibition in assay [1] is 6.93%; in assay [2], 0%; in assay [3] it was -2.11%; in assay [4], -7.36%; in assay [5] it was 6.47%.
Regarding `CCOC(=O)c1ccc(NC(=O)N2Cc3ccccc3-n3cccc3C2c2cccs2)cc1` (stereo not given), the activity change, negative = inhibition in assay [1] is 6.12%; in assay [2], 0.357%; in assay [3], -1.69%; in assay [4], -1.67%; in assay [5], 4.49%.
As for `CC1(N2CCC(n3c([C@@H]4CCCNC4)nc4ccccc43)CC2)CCCCCCC1`, the activity change, negative = inhibition is -2.31% in assay [1]; 10.1% in assay [2]; -12.9% in assay [3]; -11.1% in assay [4]; -0.526% in assay [5].
For the molecule `CCCNC(=O)N1Cc2ccccc2-n2cccc2C1c1ccccc1C` (stereo not given), the activity change, negative = inhibition in assay [1] was 8.55%; in assay [2] it was 0.267%; in assay [3] it was 5.37%; in assay [4] it was -5.29%; in assay [5], 6.86%.
In the case of `CC1(C)C(=O)N(c2ccc(C#N)c(C(F)(F)F)c2)C(=O)N1CCCCO`, the activity change, negative = inhibition in assay [1] was 4.04%; in assay [2], 6.85%; in assay [3] it was 12.9%; in assay [4], -9.5%; in assay [5], 4.23%.
Regarding `COc1ccc(C2c3cccn3-c3ccccc3CN2C(=O)Nc2cccc(SC)c2)cc1OC` (stereo not given), the activity change, negative = inhibition is 8.69% in assay [1]; 2.13% in assay [2]; 0.18% in assay [3]; -7.27% in assay [4]; -0.036% in assay [5].
In the case of `CCOC(=O)C1CCC(CNC(=O)N2Cc3ccccc3-n3cccc3C2CC)CC1` (stereo not given), the activity change, negative = inhibition in assay [1] was 0.882%; in assay [2] it was 2.93%; in assay [3] it was 1.53%; in assay [4], -8.12%; in assay [5], -2.11%.
On to `CCOc1ccccc1NC(=O)N1Cc2ccccc2-n2cccc2C1c1ccc(OC)c(OC)c1` (stereo not given), for which the activity change, negative = inhibition was 5.48% in assay [1]; 0% in assay [2]; -3.84% in assay [3]; -4.04% in assay [4]; -1.56% in assay [5].
In the case of `CC1=CC2(O)/C=C/C(C)(O)C(O)C(O)/C=C/C(=O)OC23C(=O)NC(CC(C)C)C3C1C` (stereo not given), the activity change, negative = inhibition in assay [1] is 3.09%; in assay [2], 4.07%; in assay [3], 10.3%; in assay [4] it was -8.34%; in assay [5], -0.89%.
Turning to `Cc1cccc(NC(=O)N2Cc3ccccc3-n3cccc3C2c2ccc(F)cc2)c1` (stereo not given), the activity change, negative = inhibition in assay [1] is -0.287%; in assay [2], 0.55%; in assay [3], 5.5%; in assay [4], 5.66%; in assay [5], 8.9%.
In the same order, the values of `CCC1c2cccn2-c2ccccc2CN1C(=O)NCCC(C)C` (stereo not given) are -2.12%, 0.912%, 3.07%, -4.66% and 1.56%.
For `CCOc1ccc(NC(=O)N2Cc3ccccc3-n3cccc3C2CC)cc1` (stereo not given), the activity change, negative = inhibition was -0.18% in assay [1]; 0% in assay [2]; 4.12% in assay [3]; 0.121% in assay [4]; 4.93% in assay [5].
Regarding `C/C=C(\C)C(=O)OC1CC2C(C)(C)OC(=O)CC(OC(C)=O)C2(C)C2CC(OC(=O)C(C)C)C3(C)C(c4ccoc4)CC4OC43C12C` (stereo not given), the activity change, negative = inhibition was 0% in assay [1]; -2.3% in assay [2]; 2.63% in assay [3]; -16.8% in assay [4]; 1.83% in assay [5].
Consider `Cc1nc(-c2ccco2)cc([C@H]2CN3CC[C@H]2C[C@@H]3CNS(C)(=O)=O)n1`, for which the activity change, negative = inhibition was -2.46% in assay [1]; -0.524% in assay [2]; -8.02% in assay [3]; -6.4% in assay [4]; -5.96% in assay [5].
Take `Cc1sc2c(c1C)C(c1ccc(Cl)cc1)=N[C@@H](CC(N)=O)c1nnc(C)n1-2`: the activity change, negative = inhibition in assay [1] was 0.396%; in assay [2], -1.11%; in assay [3], 1.67%; in assay [4] it was -27.4%; in assay [5], -4.98%.
